Results are given in words; binding and its absence hold for the method and conditions named. In cells and extracts the contact can be indirect. Some binding calls cover weakened binding; strength is not graded here. For some of these results: Tags and fused reporters may be left off the sequences shown.
Legend:
[1] = biological target: FLAG-NCK2^W39K (SH3-1*) (UniProt O43639); assay: co-IP; anti-FLAG IP of transiently expressed FLAG-NCK1 or FLAG-NCK2 constructs from U2OS Flp-In T-REx cells induced to express FAM83H-GFP; immunoblot
[2] = biological target: FLAG-NCK2^W235K (SH3-3*) (UniProt O43639); assay: as above
[3] = biological target: FLAG-NCK2^(W39K, W235K) (SH3-1/3*) (UniProt O43639); assay: as above
[4] = biological target: FLAG-NCK2^(W39K, W149K) (SH3-1/2*) (UniProt O43639); assay: as above
[5] = biological target: FLAG-NCK2^W149K (SH3-2*) (UniProt O43639); assay: as above
[6] = biological target: FLAG-NCK2^R311M (SH2*) (UniProt O43639); assay: as above
[7] = biological target: T1, GFP-FAM83H (transient, U2OS FAM83H-/-) (human) (UniProt Q6ZRV2); assay: co-IP; anti-GFP pull-down from lysates of U2OS FAM83H-/- cells transiently transfected with GFP or GFP-FAM83H and mCherry-UNC45A; Western blot
T1 sequence: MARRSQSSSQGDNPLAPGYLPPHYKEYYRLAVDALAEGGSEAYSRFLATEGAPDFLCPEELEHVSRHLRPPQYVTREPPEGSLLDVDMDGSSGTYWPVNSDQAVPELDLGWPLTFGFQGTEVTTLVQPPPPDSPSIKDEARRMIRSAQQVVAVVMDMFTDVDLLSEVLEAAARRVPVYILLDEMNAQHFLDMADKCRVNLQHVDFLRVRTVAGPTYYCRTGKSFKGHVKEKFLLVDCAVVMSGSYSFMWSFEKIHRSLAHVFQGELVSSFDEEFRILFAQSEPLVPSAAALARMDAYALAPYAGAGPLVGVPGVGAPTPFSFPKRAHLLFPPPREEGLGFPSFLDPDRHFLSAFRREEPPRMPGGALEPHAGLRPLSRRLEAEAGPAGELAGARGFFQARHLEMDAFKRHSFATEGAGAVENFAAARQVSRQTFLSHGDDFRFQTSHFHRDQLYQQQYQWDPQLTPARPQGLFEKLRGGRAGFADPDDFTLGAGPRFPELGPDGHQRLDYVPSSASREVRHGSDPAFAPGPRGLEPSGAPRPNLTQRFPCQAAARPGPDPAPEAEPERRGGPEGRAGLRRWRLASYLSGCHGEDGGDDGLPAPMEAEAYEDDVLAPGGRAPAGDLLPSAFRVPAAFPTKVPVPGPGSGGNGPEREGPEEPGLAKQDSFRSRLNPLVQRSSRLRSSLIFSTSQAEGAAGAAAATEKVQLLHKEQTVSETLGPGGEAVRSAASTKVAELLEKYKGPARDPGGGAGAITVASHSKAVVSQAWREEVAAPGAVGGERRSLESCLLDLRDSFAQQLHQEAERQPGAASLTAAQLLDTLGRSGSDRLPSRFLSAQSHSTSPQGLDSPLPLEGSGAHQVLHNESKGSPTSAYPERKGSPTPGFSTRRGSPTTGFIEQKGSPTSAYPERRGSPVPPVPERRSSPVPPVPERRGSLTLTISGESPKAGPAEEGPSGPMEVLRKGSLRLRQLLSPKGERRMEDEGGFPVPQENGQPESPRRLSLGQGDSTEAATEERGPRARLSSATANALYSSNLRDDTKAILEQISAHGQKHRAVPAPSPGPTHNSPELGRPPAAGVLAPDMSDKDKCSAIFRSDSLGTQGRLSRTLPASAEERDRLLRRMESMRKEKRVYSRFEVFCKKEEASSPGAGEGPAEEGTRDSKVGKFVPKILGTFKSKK

Chains of the proteins cited; added tags and fusions are not shown. Lines headed by an entry give the natural chain unless they say otherwise; changes in a name come on top.
UniProt O43639: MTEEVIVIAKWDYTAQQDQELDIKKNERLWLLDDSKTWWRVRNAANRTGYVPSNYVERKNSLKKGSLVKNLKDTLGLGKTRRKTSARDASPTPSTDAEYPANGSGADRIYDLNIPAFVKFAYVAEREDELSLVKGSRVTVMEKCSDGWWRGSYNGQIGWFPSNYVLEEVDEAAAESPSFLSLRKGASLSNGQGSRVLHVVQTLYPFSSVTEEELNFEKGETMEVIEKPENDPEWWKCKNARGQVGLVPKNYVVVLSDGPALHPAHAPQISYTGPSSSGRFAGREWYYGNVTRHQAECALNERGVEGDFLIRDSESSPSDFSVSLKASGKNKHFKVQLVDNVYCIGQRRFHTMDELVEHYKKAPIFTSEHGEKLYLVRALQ
UniProt P49674: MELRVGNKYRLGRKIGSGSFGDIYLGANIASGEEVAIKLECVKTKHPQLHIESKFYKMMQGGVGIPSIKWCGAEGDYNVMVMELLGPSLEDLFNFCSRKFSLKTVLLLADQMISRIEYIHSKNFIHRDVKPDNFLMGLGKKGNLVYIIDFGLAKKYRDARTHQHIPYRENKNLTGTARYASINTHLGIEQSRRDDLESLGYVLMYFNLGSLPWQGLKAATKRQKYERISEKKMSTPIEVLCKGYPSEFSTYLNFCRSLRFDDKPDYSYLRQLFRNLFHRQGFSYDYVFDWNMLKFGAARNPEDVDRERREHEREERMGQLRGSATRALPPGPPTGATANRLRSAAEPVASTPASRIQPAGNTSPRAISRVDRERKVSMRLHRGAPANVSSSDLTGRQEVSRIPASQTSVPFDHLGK
UniProt P48730: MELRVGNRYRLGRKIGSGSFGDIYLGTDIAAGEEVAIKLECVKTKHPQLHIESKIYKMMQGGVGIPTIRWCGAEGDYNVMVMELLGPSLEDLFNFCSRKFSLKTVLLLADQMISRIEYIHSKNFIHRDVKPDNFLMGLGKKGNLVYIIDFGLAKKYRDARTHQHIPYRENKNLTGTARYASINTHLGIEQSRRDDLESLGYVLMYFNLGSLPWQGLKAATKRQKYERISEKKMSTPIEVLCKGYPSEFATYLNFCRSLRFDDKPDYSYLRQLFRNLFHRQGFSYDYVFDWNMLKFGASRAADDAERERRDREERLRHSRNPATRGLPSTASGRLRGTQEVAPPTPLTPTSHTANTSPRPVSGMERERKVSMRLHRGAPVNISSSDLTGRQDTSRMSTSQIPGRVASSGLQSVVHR
UniProt P48729: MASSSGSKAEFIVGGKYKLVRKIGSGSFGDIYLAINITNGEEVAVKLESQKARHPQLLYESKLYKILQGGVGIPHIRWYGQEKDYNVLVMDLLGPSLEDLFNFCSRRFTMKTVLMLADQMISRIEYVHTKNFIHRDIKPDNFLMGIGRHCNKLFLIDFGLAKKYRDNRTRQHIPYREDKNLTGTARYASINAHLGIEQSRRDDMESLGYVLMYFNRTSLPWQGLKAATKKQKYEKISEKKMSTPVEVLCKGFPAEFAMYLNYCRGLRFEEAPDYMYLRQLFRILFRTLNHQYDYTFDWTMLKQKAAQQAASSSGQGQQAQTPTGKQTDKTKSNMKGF

[8] = biological target: mCherry-CK1ε (endogenous knock-in, U2OS CK1^mCherry/mCherry) (human (endogenous in U2OS)) (UniProt P49674); assay: co-IP; mCherry IP from lysates of U2OS CK1^mCherry/mCherry knock-in cells; immunoblot of input, IP and flow through
[9] = biological target: mCherry-CK1δ (endogenous knock-in, U2OS CK1^mCherry/mCherry) (human (endogenous in U2OS)) (UniProt P48730); assay: as above
[10] = biological target: mCherry-CK1α (endogenous knock-in, U2OS CK1^mCherry/mCherry) (human (endogenous in U2OS)) (UniProt P48729); assay: as above

Measured: binding

B1: FAM83H-GFP (U2OS Flp-In T-REx, doxycycline-induced) (protein, UniProt Q6ZRV2 1-1179)
chain: MARRSQSSSQGDNPLAPGYLPPHYKEYYRLAVDALAEGGSEAYSRFLATEGAPDFLCPEELEHVSRHLRPPQYVTREPPEGSLLDVDMDGSSGTYWPVNSDQAVPELDLGWPLTFGFQGTEVTTLVQPPPPDSPSIKDEARRMIRSAQQVVAVVMDMFTDVDLLSEVLEAAARRVPVYILLDEMNAQHFLDMADKCRVNLQHVDFLRVRTVAGPTYYCRTGKSFKGHVKEKFLLVDCAVVMSGSYSFMWSFEKIHRSLAHVFQGELVSSFDEEFRILFAQSEPLVPSAAALARMDAYALAPYAGAGPLVGVPGVGAPTPFSFPKRAHLLFPPPREEGLGFPSFLDPDRHFLSAFRREEPPRMPGGALEPHAGLRPLSRRLEAEAGPAGELAGARGFFQARHLEMDAFKRHSFATEGAGAVENFAAARQVSRQTFLSHGDDFRFQTSHFHRDQLYQQQYQWDPQLTPARPQGLFEKLRGGRAGFADPDDFTLGAGPRFPELGPDGHQRLDYVPSSASREVRHGSDPAFAPGPRGLEPSGAPRPNLTQRFPCQAAARPGPDPAPEAEPERRGGPEGRAGLRRWRLASYLSGCHGEDGGDDGLPAPMEAEAYEDDVLAPGGRAPAGDLLPSAFRVPAAFPTKVPVPGPGSGGNGPEREGPEEPGLAKQDSFRSRLNPLVQRSSRLRSSLIFSTSQAEGAAGAAAATEKVQLLHKEQTVSETLGPGGEAVRSAASTKVAELLEKYKGPARDPGGGAGAITVASHSKAVVSQAWREEVAAPGAVGGERRSLESCLLDLRDSFAQQLHQEAERQPGAASLTAAQLLDTLGRSGSDRLPSRFLSAQSHSTSPQGLDSPLPLEGSGAHQVLHNESKGSPTSAYPERKGSPTPGFSTRRGSPTTGFIEQKGSPTSAYPERRGSPVPPVPERRSSPVPPVPERRGSLTLTISGESPKAGPAEEGPSGPMEVLRKGSLRLRQLLSPKGERRMEDEGGFPVPQENGQPESPRRLSLGQGDSTEAATEERGPRARLSSATANALYSSNLRDDTKAILEQISAHGQKHRAVPAPSPGPTHNSPELGRPPAAGVLAPDMSDKDKCSAIFRSDSLGTQGRLSRTLPASAEERDRLLRRMESMRKEKRVYSRFEVFCKKEEASSPGAGEGPAEEGTRDSKVGKFVPKILGTFKSKK
binds: [1] | [2] | [3] | [4] | [5] | [6]

B2: mCherry-UNC45A (protein, UniProt Q9H3U1 1-944)
chain: MTVSGPGTPEPRPATPGASSVEQLRKEGNELFKCGDYGGALAAYTQALGLDATPQDQAVLHRNRAACHLKLEDYDKAETEASKAIEKDGGDVKALYRRSQALEKLGRLDQAVLDLQRCVSLEPKNKVFQEALRNIGGQIQEKVRYMSSTDAKVEQMFQILLDPEEKGTEKKQKASQNLVVLAREDAGAEKIFRSNGVQLLQRLLDMGETDLMLAALRTLVGICSEHQSRTVATLSILGTRRVVSILGVESQAVSLAACHLLQVMFDALKEGVKKGFRGKEGAIIVDPARELKVLISNLLDLLTEVGVSGQGRDNALTLLIKAVPRKSLKDPNNSLTLWVIDQGLKKILEVGGSLQDPPGELAVTANSRMSASILLSKLFDDLKCDAERENFHRLCENYIKSWFEGQGLAGKLRAIQTVSCLLQGPCDAGNRALELSGVMESVIALCASEQEEEQLVAVEALIHAAGKAKRASFITANGVSLLKDLYKCSEKDSIRIRALVGLCKLGSAGGTDFSMKQFAEGSTLKLAKQCRKWLCNDQIDAGTRRWAVEGLAYLTFDADVKEEFVEDAAALKALFQLSRLEERSVLFAVASALVNCTNSYDYEEPDPKMVELAKYAKQHVPEQHPKDKPSFVRARVKKLLAAGVVSAMVCMVKTESPVLTSSCRELLSRVFLALVEEVEDRGTVVAQGGGRALIPLALEGTDVGQTKAAQALAKLTITSNPEMTFPGERIYEVVRPLVSLLHLNCSGLQNFEALMALTNLAGISERLRQKILKEKAVPMIEGYMFEEHEMIRRAATECMCNLAMSKEVQDLFEAQGNDRLKLLVLYSGEDDELLQRAAAGGLAMLTSMRPTLCSRIPQVTTHWLEILQALLLSSNQELQHRGAVVVLNMVEASREIASTLMESEMMEILSVLAKGDHSPVTRAAAACLDKAVEYGLIQPNQDGE
binds: [7]

B3: FAM83H, endogenous (U2OS) (protein, UniProt Q6ZRV2 1-1179)
chain: MARRSQSSSQGDNPLAPGYLPPHYKEYYRLAVDALAEGGSEAYSRFLATEGAPDFLCPEELEHVSRHLRPPQYVTREPPEGSLLDVDMDGSSGTYWPVNSDQAVPELDLGWPLTFGFQGTEVTTLVQPPPPDSPSIKDEARRMIRSAQQVVAVVMDMFTDVDLLSEVLEAAARRVPVYILLDEMNAQHFLDMADKCRVNLQHVDFLRVRTVAGPTYYCRTGKSFKGHVKEKFLLVDCAVVMSGSYSFMWSFEKIHRSLAHVFQGELVSSFDEEFRILFAQSEPLVPSAAALARMDAYALAPYAGAGPLVGVPGVGAPTPFSFPKRAHLLFPPPREEGLGFPSFLDPDRHFLSAFRREEPPRMPGGALEPHAGLRPLSRRLEAEAGPAGELAGARGFFQARHLEMDAFKRHSFATEGAGAVENFAAARQVSRQTFLSHGDDFRFQTSHFHRDQLYQQQYQWDPQLTPARPQGLFEKLRGGRAGFADPDDFTLGAGPRFPELGPDGHQRLDYVPSSASREVRHGSDPAFAPGPRGLEPSGAPRPNLTQRFPCQAAARPGPDPAPEAEPERRGGPEGRAGLRRWRLASYLSGCHGEDGGDDGLPAPMEAEAYEDDVLAPGGRAPAGDLLPSAFRVPAAFPTKVPVPGPGSGGNGPEREGPEEPGLAKQDSFRSRLNPLVQRSSRLRSSLIFSTSQAEGAAGAAAATEKVQLLHKEQTVSETLGPGGEAVRSAASTKVAELLEKYKGPARDPGGGAGAITVASHSKAVVSQAWREEVAAPGAVGGERRSLESCLLDLRDSFAQQLHQEAERQPGAASLTAAQLLDTLGRSGSDRLPSRFLSAQSHSTSPQGLDSPLPLEGSGAHQVLHNESKGSPTSAYPERKGSPTPGFSTRRGSPTTGFIEQKGSPTSAYPERRGSPVPPVPERRSSPVPPVPERRGSLTLTISGESPKAGPAEEGPSGPMEVLRKGSLRLRQLLSPKGERRMEDEGGFPVPQENGQPESPRRLSLGQGDSTEAATEERGPRARLSSATANALYSSNLRDDTKAILEQISAHGQKHRAVPAPSPGPTHNSPELGRPPAAGVLAPDMSDKDKCSAIFRSDSLGTQGRLSRTLPASAEERDRLLRRMESMRKEKRVYSRFEVFCKKEEASSPGAGEGPAEEGTRDSKVGKFVPKILGTFKSKK
binds: [8] | [9] | [10]

— paper PMC7284315
